Experimental data taken from the supplement of paper PMC10126150.
Sequences with one replicate were seen in a single cluster, so their values are uncertain.

tested on: ATP; assay: switch fluorescence ratio, 500 uM ATP over buffer (Cy3 cluster intensity, sum of 5 cycles each) (fold (ratio)); higher = stronger signal-on switching upon ATP binding; sequences stand for … in TCGTCGGCAGCGTCAGATGTGTATAAGAGACAGTTTTTTTTTTTTTTTTTTTTTTTTT…TC; details: aptamer strand: ATP DNA aptamer (quencher-CACCTGGGGGAGTATTGCGGAGGAAGG + anchor), 100 nM annealed; ATP concentration: 500 uM; one replicate
Summary of the method: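 The quencher-labelled ATP aptamer, at 100 nM, was annealed to Cy3-labelled switching-strand clusters on a modified Illumina MiSeq flow-cell. The clusters were imaged in selection buffer, then after 15 min with 500 uM ATP at 22 °C, and this buffer/ATP cycle ran five times with NaOH stripping and re-annealing between runs. Per-cluster fluorescence ratios, summed target-cycle over summed buffer-cycle Cy3 intensity, were averaged per switch-domain sequence. Clusters outside 100-1000 RFU were excluded.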
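Note: ATP exposure 15 min at 22 °C before imaging.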

| Sequence | switch fluorescence ratio |
| --- | --- |
| GATTACCAGT | 0.963 |
| CTTACTTTTC | 1.02 |
| CACAAATTAT | 1.01 |
| GTATGTTCTA | 1.03 |
| CTCCTATATG | 1.09 |
| AAATAGGC | 0.953 |
| GTGGTCTGGC | 1.05 |
| ACGCCTGCGA | 1.11 |
| CATTTACAGG | 1.09 |
| AGTACTAGTG | 1 |
| AATCATACGG | 1.03 |
| CGGGCTCATT | 1.03 |
| GCAGACAAAT | 1.01 |
| GCCATGACAG | 1.01 |
| GGGCATTGAT | 1.02 |
| GATCGTTACT | 0.971 |
| TAAGCGTGCG | 1.01 |
| CCCATCAAGG | 1.05 |
| AAATCTAAGA | 0.974 |
| GGCACGCGAT | 1.59 |
| CGCGGTCGAG | 1.09 |
| GCCAATATAA | 1.04 |

| Sequence | switch fluorescence ratio |
| --- | --- |
| GATCGATCTG | 0.98 |
| TAAGCATTCA | 0.987 |
| ACGCATAGG | 1.12 |
| CCGGGAATGT | 1.06 |
| CTGAGGTTAA | 1.04 |
| ATTCAGTTTC | 1.01 |
| CGCTGTTGTG | 0.99 |
| GCTCGGACGG | 1.01 |
| ACTAAATGG | 1.03 |
| AAGGCGTATA | 0.998 |
| GTTTCACTTT | 0.978 |
| CCAAGAGCTG | 1.07 |
| TGAGGTAGTT | 1.02 |
| TTCAAGGACC | 0.982 |
| CCCCGTATTT | 1.29 |
| CAGGGTCATA | 0.968 |
| ATTACCGAGC | 1.08 |
| GTACTTGAAT | 1.02 |
| ACTTATTTGT | 0.984 |
| TTAATAATGT | 1.02 |
| AGCTGACAAC | 1.07 |
| TCAGTCGCTG | 1.05 |

| Sequence | switch fluorescence ratio |
| --- | --- |
| GTGTTATTCA | 1.03 |
| ATGCTGTAAT | 1.01 |
| GTCCTGTTGA | 0.967 |
| AAGGACCATG | 0.985 |
| ACGGAGATGA | 1.08 |
| GGTTGTCCGT | 0.999 |
| GTACTGGT | 1.02 |
| ACTCTAGTG | 1.01 |
| CGAAAGAAAA | 0.939 |
| GAGTGCTCAA | 1.01 |
| TGGAAGAGCG | 1.01 |
| GATTAGAGCT | 1.03 |
| TCCACGGTAG | 1.01 |
| GCGTTTGAAT | 0.964 |
| ACGCTATGAC | 3.67 |
| AGACACGA | 1.03 |
| GTATGTTTGT | 0.946 |
| AGCATCGTAC | 1.78 |
| GGGGACGCGG | 1.01 |
| CACTGACTC | 1.32 |
| TGTCATGTAA | 0.981 |
| TGAATGAACA | 1.02 |

| Sequence | switch fluorescence ratio |
| --- | --- |
| GCTGGAGGCG | 0.981 |
| CTTGTGACGG | 1.02 |
| GATGTGACCG | 0.953 |
| CTCTCTTT | 1.01 |
| ACTACATTTA | 1.06 |
| CACGAAAATA | 1.73 |
| CGAATACC | 1.12 |
| CACGAGTCGC | 0.988 |
| CATCGAACGG | 1.02 |
| CAGTTCGAAC | 0.962 |
| AATTGGAGGT | 0.999 |
| GGTGACATTT | 1.01 |
| GATTGGTTG | 0.973 |
| ACGTCGTGTT | 1.02 |
| CTTAGCATTT | 1.14 |
| CTGCTTGAGA | 1.01 |
| AAAGAGATGG | 0.967 |
| CCAGGACGAC | 1.18 |
| ATAGAAGATA | 0.992 |
